The record followed here is patent publication US20230357793A1 (SORRENTO THERAPEUTICS, published 2023).

The target in this test is recombinant human TGFβ1 (rhTGFβ; Sino Biological) (human) (UniProt P01137). The test can be described thus: cell-based or functional assay.
Chain of UniProt P01137 (P01137 279-390 limits assumed): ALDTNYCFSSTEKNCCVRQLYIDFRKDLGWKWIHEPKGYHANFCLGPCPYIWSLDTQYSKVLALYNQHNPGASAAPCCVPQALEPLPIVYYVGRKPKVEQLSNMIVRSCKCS

B1: BB9 anti-PD-1 ScFv-Fc4-TGFβRIIecto fusion protein (Fc fusion)
chain: QVQLVQSGAEVKKPGASVKVSCKASGFRLTTNGISWVRQAPGQGLEWMGWISAGGGPTNYAQKLQGRVTMTTDTSTSTAYMELRSLRSDDTAVYYCAKGLYGTKDAWGQGTLVTVSSGGGGSGGGGSGGGGSQSVLTQPPSVSEVPGQRVTISCSGGGSNIGSNAVNWYQHFPGKAPKLLIYYNDLLPSGVSDRFSASKSGTSASLAISGLRSEDEADYYCAAWDDNLSAYVFATGTKVTVL[human IgG4 Fc with S228P (EU numbers) omitted here]GGGGSGGGGSGGGGSIPPHVQKSVNNDMIVTDNNGAVKFPQLCKFCDVRFSTCDNQKSCMSNCSITSICEKPQEVCVAVWRKNDENITLETVCHDPKLPYHDFILEDAASPKCIMKEKKKPGETFFMCSCSSDECNDNIIFSEEYNTSNPD
Regarding B1, the inhibition of CD103 expression (VFCM of SepGI-143) is above 70%.

B2: H6B1LEM anti-PD-L1 ScFv-Fc4-TGFβRIIecto fusion protein (Fc fusion)
chain: QMQLVQSGAEVKKPGSSVKVSCKASGGTFSSYAYSWVRQAPGQGLEWMGGIIPSFGTANYAQKFQGRVTITADESTSTAYMELSSLRSEDTAVYYCARGPIVATITPLDYWGQGTLVTVSSGGGGSGGGGSGGGGSSYVLTQPPSVSVAPGKTATIACGGENIGRKTVHWYQQKPGQAPVLVIYYDSDRPSGIPERFSGSNSGNTATLTISRVEAGDEADYYCLVWDSSSDHRIFGGGTKLTVL[human IgG4 Fc with S228P (EU numbers) omitted here]GGGGSGGGGSGGGGSIPPHVQKSVNNDMIVTDNNGAVKFPQLCKFCDVRFSTCDNQKSCMSNCSITSICEKPQEVCVAVWRKNDENITLETVCHDPKLPYHDFILEDAASPKCIMKEKKKPGETFFMCSCSSDECNDNIIFSEEYNTSNPD
B2: the inhibition of CD103 expression (VFCM of SepGI-144) is above 70%.
